From the RNAGym collection of RNA variant scans (doi:10.7554/elife.90254)
Read counts are not given, so values of variants with three or more changes are uncertain.

B1: LINE1-mini (parent)
chain: GGCAGAGCUCAACACAGCGUGGCAAAGUGGCUGUGGCUAGACUGCC

Variants of: B1
Experiment: self-cleavage, relative activity (ratio to wild type); higher = more cleavage; in vitro, sequencing; the parent is a self-cleaving ribozyme

| Variant | self-cleavage |
| --- | --- |
| G5U G17U G21U | 0.04 |
| G5U C23G G40A | 0.01 |
| G5U U9A G36A | 0.09 |
| G5U G21U C31U | 0.04 |
| G5U C15G A25C G29U | 0.01 |
| G5U G27A C31U | 0.06 |
| G5U C42G U43A | 0.05 |
| G5U C13G U34C | 0.03 |
| G5U C13G U34G | 0.05 |
| G5U C10G A14G U34G G35U G40U | 0 |
| G5U G17A G19U G40A C42A | 0.05 |
| G5U G22A G36C C45G | 0.01 |
| G5U G7U U9G G27C G36U U38A | 0.02 |
| G5U C15A U34C G35U C37A | 0.05 |
| G5U G21A C23U A39C | 0.08 |
| G5U C10A G29A G30C | 0.02 |
| G5U C42G C45U | 0.06 |
| G5U C10U U28G | 0.04 |
| G5U G44A C45G | 0.05 |
| G5U G21U C42A | 0.45 |
| G5U G27A U43A | 0.01 |
| G5U C15U G36C | 0.02 |
| G5U C10A C18A C31G | 0.01 |
| G5U G17C G22A C42G C46G | 0.05 |

| Variant | self-cleavage |
| --- | --- |
| G5U G22C A25U A39G | 0 |
| G5U U9A C18A G21A U38G | 0.08 |
| G5U C13A G17A G40C C45A | 0.03 |
| G5U C13G C37G C45U | 0.02 |
| G5U C15U C31A G35A C37G | 0 |
| G5U C10U C37U C46U | 0.04 |
| G5U G22C G29U G40C | 0.03 |
| G5U G7U C42G | 0.01 |
| G5U C15A G30C C31G | 0.03 |
| G5U G7C U9G C18U A24C C31U G35U | 0.05 |
| G5U G22U C42A | 0.3 |
| G5U C18U U32A | 0.02 |
| G5U C10G G30A A41U | 0.02 |
| G5U U9G C37U A39U C42G | 0.05 |
| G5U C18U C23U | 0.02 |
| G5U C31G U43G | 0 |
| G5U C10U G21C | 0.19 |
| G5U C10A A11U U38G | 0.01 |
| G5U G7A C10A G21U | 0.04 |
| G5U C31U A41G | 0.07 |
| G5U C13G C18A | 0.03 |
| G5U C8G G29C | 0.01 |
| G5U G33U C42U | 0.09 |
| G5U C13U U32C | 0.05 |

| Variant | self-cleavage |
| --- | --- |
| G5U C18A U20C | 0.09 |
| G5U G21U A26G G30C C31G | 0.06 |
| G5U G36C G40C | 0.02 |
| G5U G17U G40U U43C | 0.04 |
| G5U G33C C46U | 0.03 |
| G5U C23G G44U | 0.05 |
| G5U C10A C18U G22C C46A | 0.01 |
| G5U C10U C13U G33C A39U | 0.04 |
| G5U C10G G19A C42U | 0.03 |
| G5U G22U A26C U34A A41U U43C | 0.05 |
| G5U G22A G33U | 0.03 |
| G5U G21A C23U A25U C46U | 0.08 |
| G5U C18A G22U G44U | 0.05 |
| G5U C18A C31A U43G | 0.01 |
| G5U C10U G17C C18A | 0.03 |
| G5U C13U G30A | 0.09 |
| G5U U9C G17C U20A G27U | 0.01 |
| G5U C10A G40U | 0.01 |
| G5U C10A G40C | 0.02 |
| G5U G22A A25C G33U | 0.08 |
| G5U G22A C46U | 0.05 |
| G5U G21A G33A U38G | 0.02 |
| G5U C15G C23A G27C C31A | 0.03 |
| G5U C23A G27C C42U | 0.02 |

| Variant | self-cleavage |
| --- | --- |
| G5U C23G U32C U34A A39C | 0.01 |
| G5U G7A C15A | 0.24 |
| G5U U9A A12G | 0.03 |
| G5U G27A G30C | 0.06 |
| G5U C15A G19A | 0.02 |
| G5U G19C A25C | 0.04 |
| G5U G29A C31U U34G | 0.02 |
| G5U G36C U38A | 0.03 |
| G5U C18A G35U U38A | 0.03 |
| G5U C15A G44U | 0.05 |
| G5U C10A G35A G40U | 0.03 |
| G5U C10G A12C | 0.01 |
| G5U U9A G44U | 0.06 |
| G5U G7U U20C C23G | 0.07 |
| G5U G7C C15U A25U U32C U43C | 0.01 |
| G5U U20A G33A U43C | 0.01 |
| G5U C10U A14U A39C | 0.04 |
| G5U C8U A16G G44A | 0.13 |
| G5U G35C U38G | 0.1 |
| G5U G19A G27C | 0.06 |
| G5U C13U A14C | 0.01 |
| G5U C15A G21U C31A U34C | 0.1 |
| G5U G7A U20G G30A C42U U43G | 0.09 |
| G5U G21A C37U C45G | 0.05 |

| Variant | self-cleavage |
| --- | --- |
| G5U G7U A11U G21U | 0.02 |
| G5U G21U C45G | 0.04 |
| G5U C23A A41U | 0.12 |
| G5U G7U G17U | 0.05 |
| G5U U9A C18U U20A U28C G40U C46A | 0.02 |
| G5U G21U G27U | 0.33 |
| G5U U9G A39G | 0.13 |
| G5U C18U G19U U32G G36U A41C | 0.02 |
| G5U C15A G17A U38C | 0.06 |
| G5U C10A G19A A39C | 0.02 |
| G5U C13G U38C A39C | 0.08 |
| G5U G21U U38G C42A | 0.02 |
| G5U C18A A26C C45A | 0.04 |
| G5U G21A A24C C46U | 0.06 |
| G5U G7U A16U G17U U20A A24C U34A | 0.02 |
| G5U C15G G22A G44A | 0.03 |
| G5U U9A G21U A25C C42U | 0.08 |
| G5U G7U A25C U43A | 0.13 |
| G5U G19U G22U | 0.03 |
| G5U G19U G36A G44C | 0.05 |
| G5U U20A C23A C31U | 0.02 |
| G5U G35U U38A | 0.06 |
| G5U C10U G19A C23A | 0.02 |
| G5U C23U C37A | 0.62 |

| Variant | self-cleavage |
| --- | --- |
| G5U G19A G22U | 0.05 |
| G5U G19A U32G C37A A39C A41U C45U | 0.02 |
| G5U C18A G19A | 0.02 |
| G5U C23A G29A A39U A41C | 0.2 |
| G5U U9G C18G | 0.05 |
| G5U C10G A11G G30U C37A | 0.01 |
| G5U C23U A26U | 0.94 |
| G5U C18G C31U U43C C45G | 0.07 |
| G5U C13A A14C | 0.04 |
| G5U G7U G17C A39U | 0.15 |
| G5U C15G A41C | 0.07 |
| G5U G33A G35A | 0.08 |
| G5U G33A G35U | 0.05 |
| G5U G17U A41C | 0.04 |
| G5U G7U A26G U38C | 0.36 |
| G5U C42G C46U | 0.02 |
| G5U C10U A26G | 0.02 |
| G5U U9A A26C | 0.02 |
| G5U U9G A12C G17C U28C C45U | 0.01 |
| G5U C42A C46G | 0.16 |
| G5U G21U A25C G35U C42A C45G | 0.04 |
| G5U G27A A39G C45U | 0.03 |
| G5U C23A G29U | 0.03 |
| G5U C23G G27C G36C | 0.01 |

| Variant | self-cleavage |
| --- | --- |
| G5U U20A U38C | 0.03 |
| G5U G22A G29A | 0 |
| G5U G22A G29U | 0.06 |
| G5U G19U G35U C42G | 0.03 |
| G5U G30A U34A | 0.05 |
| G5U U9A G21U G30C G40C | 0.01 |
| G5U C15U G44A | 0.09 |
| G5U C18A C31U U32C | 0.02 |
| G5U C15U G19U U38G | 0.02 |
| G5U C10U G30C | 0.02 |
| G5U G7C G36U | 0.04 |
| G5U G7C G36A | 0.18 |
| G5U G7U U20G A26U U32G A39G | 0.29 |
| G5U G19A A39U | 0.06 |
| G5U U9A G33A | 0.32 |
| G5U G7U C8G G44U | 0.45 |
| G5U C8U A25U | 0.11 |
| G5U G7C G17A | 0.03 |
| G5U C15G C45A | 0.04 |
| G5U G21A U38C | 0.04 |
| G5U U9G G40U | 0.02 |
| G5U C10A G30A G35C | 0.03 |
| G5U C23A U38A | 0.05 |
